Here are results for one molecule from US20230312722A1 (NONA BIOSCIENCES SUZHOU, published 2023).

In test [1] the target is T1, B7-H4 (Acro Biosystems, #B74-H82E2) (UniProt Q7Z7D3 29-258).
T1 construct: Bought protein; also called B7-H4 captured on SA sensor
T1 sequence (looked up): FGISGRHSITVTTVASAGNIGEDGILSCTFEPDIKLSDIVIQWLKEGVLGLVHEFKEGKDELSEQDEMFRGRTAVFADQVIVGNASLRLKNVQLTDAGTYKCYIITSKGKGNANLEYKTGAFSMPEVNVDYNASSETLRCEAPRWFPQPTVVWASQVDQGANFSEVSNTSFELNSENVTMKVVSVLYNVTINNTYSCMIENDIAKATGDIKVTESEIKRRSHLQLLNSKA
Put plainly: BLI epitope competition; 1st Ab = row; competitor (2nd Ab) Control antibody 1; inhibition of the 2nd Ab signal. As for the experimental part:
(§1) Step one, acquisition of 100% signal of antibodies: B7-H4 (Acro Biosystems, #B74-H82E2-200 μg) was captured at a capture height of 0.25 nm using an SA sensor (Fortebio, #18-5019). The sensor was equilibrated in a buffer for 120 s and then immersed in each antibody diluted to 100 nM for 240 s, and the final signal of the antibody binding to B7-H4 was recorded as the 100% signal of the antibody. Step two, epitope competition experiment: B7-H4 was captured using an SA sensor at a capture height of 0.25 nm. The sensor was immersed in a primary antibody (at a concentration of 100 nM) for 240 s, and then the SA sensor was immersed in a mixture of the primary and secondary antibodies (both at a final concentration of 100 nM) for 240 s, and the difference in signals after immersion of the sensor in the antibody mixture was recorded as the signal of the antibody as the secondary antibody. The inhibition rate was calculated according to the following formula: […]

Test [2] deals with T2, human B7H4 on the cell surface (human, UniProt Q7Z7D3 25-282).
T2 construct: whole, on cells; also called CHOK1/hu B7H4; B7H4 on SK-BR-3
T2 sequence (looked up): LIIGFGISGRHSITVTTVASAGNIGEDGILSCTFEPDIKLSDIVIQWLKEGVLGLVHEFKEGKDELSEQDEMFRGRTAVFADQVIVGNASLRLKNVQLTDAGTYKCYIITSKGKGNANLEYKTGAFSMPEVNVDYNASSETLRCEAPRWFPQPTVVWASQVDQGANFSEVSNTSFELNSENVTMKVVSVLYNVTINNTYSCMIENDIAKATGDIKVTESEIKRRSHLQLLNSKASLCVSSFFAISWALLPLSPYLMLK
As to the kind of experiment: FACS on SK-BR-3 cells after 0 to 14 days in 90% human serum at 37 °C. The procedure: The cell density was adjusted to 1×10⁶ cells/mL. The cells were seeded in a 96-well V-bottom plate (Corning, #3894) at 100 μL/well, followed by the addition of test antibodies diluted in a 3-fold gradient at a concentration that was 2 times the final concentration, each at 100 μL/well. The cells were incubated at 4° C. for 2 h away from light. […] The cells in each well were washed twice with 100 μL of pre-cooled PBS containing 2% BSA, and centrifuged at 500 g at 4° C. for 5 minutes, and then the supernatant was discarded. Finally, the cells in each well were resuspended with 200 μL of pre-cooled PBS containing 2% BSA, and the fluorescence signal values were read using an ACEA Novocyte3000 flow cytometer.

In test [3] the target is T3, mouse B7H4 on the cell surface (mouse, UniProt Q7TSP5 25-257).
T3 construct: whole, on cells; also called CHOK1/m B7H4
T3 sequence (looked up): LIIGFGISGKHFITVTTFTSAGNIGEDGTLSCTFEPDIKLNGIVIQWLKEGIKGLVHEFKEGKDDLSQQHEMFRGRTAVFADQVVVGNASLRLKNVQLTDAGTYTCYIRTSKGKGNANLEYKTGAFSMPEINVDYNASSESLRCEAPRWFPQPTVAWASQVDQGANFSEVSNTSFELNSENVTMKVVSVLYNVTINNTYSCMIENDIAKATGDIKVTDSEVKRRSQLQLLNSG
Put plainly: FACS, CHOK1/m B7H4 cells. As for the experimental part: (§2) This example is intended to investigate the in vitro binding activity of anti-human B7H4 H2L2 monoclonal antibody to human/cynomolgus monkey/mouse B7H4. Antibody binding experiments at the cellular level were performed using CHOK1 cell line overexpressing human B7H4 (CHOK1/hu B7H4, Harbour BioMed), CHOK1 cell line overexpressing cynomolgus monkey B7H4 (CHOK1/cyno B7H4, Harbour BioMed), CHOK1 cell line overexpressing mouse B7H4 (CHOK1/m B7H4, Harbour BioMed) and SK-BR-3 cell line (ATCC® HTB-30) highly expressing human B7H4. Briefly, CHOK1/hu B7H4 cells, CHOK1/cyno B7H4 cells, CHOK1/m B7H4 cells or SK-BR-3 cells were digested and resuspended with PBS containing 2% BSA. The cell density was adjusted to 1×10⁶ cells/mL. The cells were seeded in a 96-well V-bottom plate (Corning, #3894) at 100 μL/well, followed by the addition of test antibodies diluted in a 3-fold concentration gradient of 2 times the final concentration, each at 100 μL/well. The cells were incubated at 4° C. for 2 h away from light. Thereafter, the cells in each well were rinsed twice with 100 μL of pre-cooled PBS containing 2% BSA, and centrifuged at 500 g at 4° C. for 5 min, and then the supernatant was discarded. Then 100 μL of a fluorescent secondary antibody (Alexa Fluor 488-conjugated AffiniPure Goat Anti-Human IgG, Fcγ Fragment Specific, Jackson, #109-545-098, 1:500 diluted) was added to each well. The plate was incubated away from light at 4° C. for 1 h. The cells in each well were washed twice with 100 μL of pre-cooled PBS containing 2% BSA, and centrifuged at 500 g at 4° C. for 5 minutes, and then the supernatant was discarded. Finally, the cells in each well were resuspended with 200 μL of pre-cooled PBS containing 2% BSA, and the fluorescence signal values were read using an ACEA Novocyte3000 flow cytometer.

The target in test [4] is T1, B7-H4 (Acro Biosystems, #B74-H82E2). Put plainly: BLI epitope competition; 1st Ab = row; competitor (2nd Ab) Control antibody 2; inhibition of the 2nd Ab signal. As for the experimental part:
as §1

For test [5] the target is unchanged. As to the kind of experiment: BLI epitope competition; 1st Ab = row; competitor (2nd Ab) PR002421; inhibition of the 2nd Ab signal. As for the experimental part:
as §1

Test [6] shares this target. Put plainly: BLI epitope competition; 1st Ab = row; competitor (2nd Ab) PR002418; inhibition of the 2nd Ab signal. As for the experimental part:
as §1

The target in test [7] is T2, human B7H4 on the cell surface. As to the kind of experiment: FACS, SK-BR-3 cells. As for the experimental part: as §2

B1: PR002421 (antibody, human IgG1, kappa)
heavy: QVQLVQSGAEVKKPGSSMRVSCKASEDTFSSYAISWVRQAPGQGLEWMGGTAPIFGTTNYAQKFQGRVTITADKSTSTAYMELSSLRSEDTAVYYCARGGPYFDYWGQGTLVTVSSASTKGPSVFPLAPSSKSTSGGTAALGCLVKDYFPEPVTVSWNSGALTSGVHTFPAVLQSSGLYSLSSVVTVPSSSLGTQTYICNVNHKPSNTKVDKKV[human IgG1 Fc with changes not written out]
light: EIVMTQSPASLSVSPGERATLSCRASQSVSSNLAWYQQKPGQAPRLLIYGASTRATGIPARVSGGGSGTEFTLTISSLQSEDFAVYYCQQYKNWPFTFGPGTKLEIKRTVAAPSVFIFPPSDEQLKSGTASVVCLLNNFYPREAKVQWKVDNALQSGNSQESVTEQDSKDSTYSLSSTLTLSKADYEKHKVYACEVTHQGLSSPVTKSFNRGEC
notes: PTM variant/DE mutant of PR002037 (L: C87Y; Fc S239D, I332E), human IgG1; also called RP002421
Turning to B1, the “Competitive inhibition rate (%)” value in test [1] was 10.8%; in test [4] it was 10.6%; in test [5], 94.8%; in test [6] it was 7.12%. Further, the “EC50 (read off the curve)” value in test [2] was about 4 nM. Further, the EC50 was 1.99 nM in test [3] and 1.92 nM in test [7]. Moreover, the results for the “Maximum MFI” value in test [3] and in test [7] were 1.46e+06 MFI and 242000 MFI, respectively.
